The whole screen tested about 48,000 compounds, of which about 450 (0.94%) were called active. About 19% were inconclusive and are not listed. Calls come from the whole dose curve; as a rule, active = well fitted inhibition curve with a large enough effect; inconclusive = small, poorly fitted or top-dose-only effect; inactive = no such curve, though single readings can be large or run the other way. Some of the results follow.
Assay: Primary qHTS for Identification of Small Molecule Inhibitors of Huntingtin Promoter Activity; note: nearly all actives have a fitted effect of over 50% in size
Settings: HEK293 HTT promoter firefly luciferase reporter (activity 0% = vehicle and -100% = no light), 24 h; series mostly up to 57.5 µM; activity change, negative = inhibition: at the top concentration
Summary of the method: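 Luminescence was read after Dual-Glo reagent and a 10 min room-temperature incubation. Values were normalized to vehicle (0% activity) and zero RLU (-100% activity). Reporter HEK293 cells had been exposed to compounds (up to 57.5 uM final) for 24 h.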

Activity change, negative = inhibition, inactive:
c1cc(CN2CCCCC2)cc(OCCCNc2nc3ccccc3s2)c1 -9.19%
O=C(NC1CC(=O)N(c2ccc(F)cc2)C1)C1CCCCC1 (centres undefined) 1.51%
CCOc1cc(/C=C(\C#N)C(=O)Nc2ccccc2C)ccc1OCc1cc(=O)n2nc(CC)sc2n1 28.1%
CCOc1ccc(-c2csc(-c3nc(-c4ccc(Br)s4)cs3)n2)cc1 -13.4%
Cc1nnc(SCC(=O)NCc2ccc(N(C)C)cc2)c2nn(-c3ccccc3)c(C)c12 -25.9%
Cc1ccc(NC(=O)C2CCN(c3nnc(-n4cccc4)s3)CC2)cc1Cl -20.2%
COc1cccc(C(c2c(O)cc(C)n(Cc3ccco3)c2=O)N2CCC(C)CC2)c1 (centres undefined) 0.0599%
CNCC(O)c1ccc(O)c(O)c1 (centres undefined) 11.3%
O=C(NCc1ccccc1)c1cc2ccccc2o1 16.9%
COc1ccc(-c2nc(C)c(CCNC(=O)c3cc(OC)c(OC)c(OC)c3)s2)cc1OC -1.29%
CC(C)CCNC(=O)c1cccc(-n2cnc3cccnc32)c1 -19.9%
Cc1ccc(C)c(N2CCN(S(=O)(=O)c3ccc4c(c3)CC(=O)N4C)CC2)c1 -16.2%
Cc1cccc(CS(=O)(=O)Cc2ccc(C(=O)NC(C)c3ccccc3)o2)c1 (centres undefined) -18.3%
CCCN(C(=O)Cc1c(C(=O)O)[nH]c2ccc(Cl)cc12)c1ccc(OCC)cc1 -13%
CCOCCCNC(=O)c1[nH]c2cc(OC)ccc2c1Sc1ccccc1 -26.2%
COc1ccc(CCC(=O)NCc2nc3cccnc3n2Cc2ccc(C)cc2)cc1 -15.5%
Cc1ccc(S(=O)(=O)NCC(c2ccco2)N2CCN(c3ccccc3F)CC2)cc1 (centres undefined) -12.4%
COC(=O)c1c(NC(=O)c2nc(SCc3ccc(C)cc3)ncc2Cl)sc2c1CCCC2 5.15%
CCCN1C(=O)CN(C2CCCCC2)C(=O)C1c1ccc(OC)c(OC)c1 (centres undefined) -1.94%
COc1ccc(NC(=O)Cn2c(=O)n(CCC(=O)NCCc3ccc(OC)c(OC)c3)c(=O)c3ccccc32)cc1Cl -5.83%
Cc1ccc2c(=O)cc(C(=O)Nc3ccc(S(=O)(=O)Nc4onc(C)c4C)cc3)oc2c1 -13.1%
COc1cccc([C@@H]2Nc3ccc(C(=O)O)cc3[C@@H]3C=CC[C@@H]32)c1OC -13.8%
Cc1cccc(-n2ncc(C(=O)N3CCN(C(=O)c4ccco4)CC3)c2C2CCN(C(=O)OC(C)(C)C)CC2)c1 6.1%
CC(NC(=O)C(=O)Nc1c2c(nn1-c1ccccc1)CSC2)c1ccccc1 (centres undefined) -19.9%
Cc1ccc2c(c1)c(=O)c(C(=O)c1ccncc1)cn2CC(=O)Nc1ccc(C(C)C)cc1 -29%
Cc1ccc(N2CC(NC(=O)c3ccc(Br)o3)CC2=O)cc1C (centres undefined) -26.6%
COc1cccc(NC(=O)Cn2nc3c4ccccc4n(Cc4cccc(F)c4)cc-3c2=O)c1 -18.8%
Cc1nn(CCC(=O)NCc2ccc(N(C)C)cc2)c(=O)c2nn(-c3ccccc3)c(C)c12 -6.04%
Cc1nnc(N2CCN(c3ccccc3F)CC2)c2c1nnn2Cc1ccccc1Cl -5.38%
CC(C)(C)c1ccc(C(=O)Nc2ccc(-c3nc4cc(Cl)ccc4o3)cc2)cc1 -36.3%
COc1ccc2nc3oc(C(=O)N(C)c4ccc(Cl)cc4)cc3cc2c1 -6.19%
CC(=O)Nc1ccccc1-c1nc2ccccc2n(C(C)C(=O)c2ccc(C)c(C)c2)c1=O (centres undefined) -0.286%
CCOc1ccc(CC(=O)NC2CC(=O)N(c3ccc4c(c3)OCCO4)C2)cc1 (centres undefined) -16.5%
NC[C@H]1O[C@H](O[C@H]2[C@H](O[C@@H]3O[C@H](CO)[C@@H](O)[C@H]3O)C(O)[C@H](N)C[C@@H]2N)[C@H](N)[C@@H](O)[C@@H]1O (some centres undefined) 2.98% [at 11.5 µM]
CCN(c1ccccc1)S(=O)(=O)c1nnc(NC(=O)COc2ccccc2F)s1 -25.7%
COc1ccc(-c2[nH]ncc2C(=O)NCc2ccccc2OC)cc1 -23.1%
Cc1ccc(NC(=O)CN(C)S(=O)(=O)c2cccc3nsnc23)c(C)c1 -22.5%
CC(=O)Nc1ccc(S(=O)(=O)Nc2ccc3c(c2)n(C)c(=O)n3C)c(C)c1 6.44%
Cc1cc(C)n(-c2nc3cc(Cl)c(Cl)cc3nc2Nc2c(C)cccc2C)n1 -14.6%
CCSC1=NC2(CCN(C(=O)NC3CCCCC3)CC2)N=C1c1ccc(C)c(C)c1 -18.2% [at 11.5 µM]
CC(C=CC1=C(C)CCCC1(C)C)=CC=CC(C)=CC(=O)O -2.23%
Cc1ccc(NC(=O)[C@H](Cc2ccccc2)N2Cc3ccccc3C2=O)cc1 -8.52%
CCOC(=O)c1c(NC(=O)c2cc3ccccc3c(=O)o2)sc2c1CCCC2 -14.1%
COc1ccc(OC)c(NC(=O)CCc2c(C)nc3c(-c4ccccc4)c(C)nn3c2C)c1 -28.9%
CCCN(CCC)CCNC(=O)c1cc(Sc2ccc(Cl)cc2)nc2ccccc12 -6.71%
Cc1cccc(CSCCNC(=O)CN(c2ccccc2)S(=O)(=O)N(C)C)c1 -26.2%
Cc1ccc(S(=O)(=O)c2cn(CC(=O)Nc3ccc4c(c3)OCO4)c3ccc(F)cc3c2=O)cc1 -9.13%
Cc1cccc(Nc2nc3ccccc3n3c(N)nnc23)c1 11.6%
Cc1cc2n(n1)CCCN2C(=O)Nc1cccc(C)c1C -9.69%
Cc1ccc(Cn2c(=O)c3cccnc3n(Cc3ccc(F)cc3)c2=O)cc1 -25.8%
Cc1cccc(CNC(=O)c2ccc(Cn3c(SCc4ccccc4)nc4cccnc43)cc2)c1 -15.8%
CCc1ccc2oc(C(=O)Nc3nc(-c4ccccc4)ns3)c(C)c2c1 1.64%
Cc1ccc(OC(C)C(=O)NCC2(N3CCOCC3)CCCCC2)cc1C (centres undefined) -24.2%
Cc1c(C(=O)N(C)C)sc2c1c(=O)n(-c1ccc(F)cc1)c(=O)n2CC(=O)N(C)c1ccccc1 -16.9%
COc1ccccc1CNC(=O)CCC1N=C2c3ccccc3N=C(SCC(=O)NCCc3ccccc3)N2C1=O (centres undefined) -12.3%
COc1ccc(Cl)cc1NC(=O)c1nc(S(C)(=O)=O)ncc1N(Cc1ccc(C)cc1)Cc1ccco1 -16.7%
Cc1cc2oc(C(=O)Nc3ccc(S(=O)(=O)Nc4onc(C)c4C)cc3)cc(=O)c2cc1C -17.8%
CCOc1ccc(-n2c(SC(C)C(=O)OC)nc3c([nH]c4ccccc43)c2=O)cc1 (centres undefined) -15.7%
NC[C@H](O)c1ccc(O)c(O)c1 6.64%
CCN(CC)CCNC(=O)c1ccc(N)cc1 10%
CCOC(=O)c1c(NC(=O)/C=C/c2ccc(OC)cc2)sc2c1CCC(C)C2 (centres undefined) -11.9%
O=C(CSc1nc(=O)[nH]c2c1CCCC2)NCc1ccc(Cl)cc1 -5.32%
CCN(CCCNC(=O)c1cc2c(=O)[nH]c3ccc(C)cc3c2s1)Cc1ccccc1 -20.9%
CCOC(=O)c1c(NC(=O)c2ccc(S(=O)(=O)N(C)C)cc2)sc2c1CCN(C)C2 -1.18%
COc1ccc(NC(=O)Cn2c(=O)n(CC3CCCO3)c(=O)c3ccccc32)cc1 (centres undefined) -8.86%
CCCCCCNc1ncnc2c1sc1nc(N3CCOCC3)c3c(c12)CCCC3 -4.99%
CCCCSCCCNC(=O)c1cc(-c2cccnc2)nc2ccc(S(=O)(=O)N3CCC(C)CC3)cc12 -4.37%
O=C(Nc1cccc(C(=O)N2CCN(c3ccc(F)cc3)CC2)c1)c1nsc2ccccc12 -9.97%
Cc1oc2ccc(O)c(CN3CCN(Cc4ccccc4)CC3)c2c1C(=O)Nc1cccc(Cl)c1C 3.79%
CCCN(C(=O)c1nn(-c2ccc(C)cc2)c(=O)c2c1c1ccccc1n2C)c1ccccc1C -20.5%
CCOc1ccc(NC(=O)c2cnn3c(C(F)F)cc(-c4ccc(C)cc4)nc23)cc1 -7.39%
CC(=O)c1ccc(N2CCN(C(=O)Cn3ncc4c3-c3ccccc3OC4)CC2)cc1 -37.9%
COc1ccccc1/C=C/c1nc(C#N)c(NC(C)c2ccccc2)o1 (centres undefined) -4.7%
Cc1c(Cl)cccc1NC(=O)CN1C(=O)CSc2ccc(S(=O)(=O)N3CCCC3)cc21 -24.1%
CC(C)(C)C(=O)OCOC(=O)C1N2C(=O)CC2S(=O)(=O)C1(C)C (centres undefined) 9.13%
CCc1ccc(Sc2cc(C(=O)NCCCN3CCCC(C)C3)c3ccccc3n2)cc1 (centres undefined) -15.1%
Cc1ccccc1CCNCc1c(C(=O)O)c(C)n(Cc2c(F)cccc2Cl)c1C -13.7%
Cc1ccc(NC(=O)CN2CCN(C3CCCCC3)C(=O)C2=O)cc1 -20.6%
O=c1cc(COc2cccc(C(F)(F)F)c2)nc2sc3c(n12)CCCC3 -4.53%
Cc1ccc(-n2ncc(C(=O)N3CCN(C4CCCCC4)CC3)c2C2CCN(C(=O)OC(C)(C)C)CC2)cc1 8.59%
CC(C)NC(=O)c1nn(C)c2c1CS(=O)(=O)c1ccccc1-2 -0.983%
COC(=O)c1cc(Cl)ccc1NC(=O)Cn1c(C)cc(C)c(C#N)c1=O -7.23%
CC(=O)Nc1ccc2nc(SCc3ccccc3)sc2c1 29.8%
COc1ccccc1CNc1nc(-c2ccco2)nn1S(=O)(=O)c1ccc(C)cc1 30.7%
CCOc1ccccc1CN(CCc1ccc2c(c1)OCO2)Cc1cc(OC)c(OC)cc1OC -10.8%
CCn1c(=O)c2sccc2n2c(CCCC(=O)N3CCN(c4ccccc4OC)CC3)nnc12 -17.3%
CCOC(=O)N1CCC(NC(=O)c2cnn(-c3cccc(C)c3)c2C2CCN(C(=O)OC(C)(C)C)CC2)CC1 4.75%
COc1ccc(CNC(=O)C(=O)NCC(c2cccs2)S(=O)(=O)c2ccc(C)cc2)cc1 (centres undefined) -15.3%
CCn1c(SCC(=O)Nc2cccc(Cl)c2)nnc1-c1nonc1NC(C)=O -18.2%
Cc1ccc(-c2nsc(NC(=O)c3oc4cc(C)c(Cl)cc4c3C)n2)cc1 -1.26%
COc1cc2[nH]c(=O)n(Cc3ccc(C(=O)N4CCN(c5cccc(C)c5C)CC4)cc3)c(=O)c2cc1OC -12.7%
COc1ccc(CNC(=O)c2cc(Nc3ccc(OC)cc3OC)nc3ccccc23)cc1 16.6%
COc1ccc(CCNC(=O)Cn2nnc(-c3cccc(C(F)(F)F)c3)n2)cc1OC 16.6%
Cc1ccc(-n2nc(CO)c(C(=O)NCCO)n2)cc1 40.4%

— PubChem BioAssay AID1508623 (National Center for Advancing Translational Sciences (NCATS), 2021)
